{"source": "patent CN111875700A", "about": "(CUSABIO BIOTECH CO LTD, dated 2020)", "binders": {"B1": {"name": "1A6重组抗体 (1A6 single-chain antibody fused to human IgG1 Fc fragment) (Fc fusion)", "chain": "EVKLKESGAELVKPGASVKLSCTASGFNIKDTYMHWVKQRPGQGLEWIGYINPSTGYTEYNQKFKDKATLTADKSSSTAYMQLSSLTSEDSAVYYCARDALGWYFDVWGAGTLVTVSTGGGGSGGGGSGGGGSDVVMTQSHKFMSTSVGDRVSVTCKASQNVGTNVAWYQQKPGQFPKALIYSASYRYSGVPDRFTGSGSGTDFTLTISNVQSEDLAEYFCQQYNSYPLTFGAGTKLEIK[letters of human IgG1 Fc not shown]", "notes": "also called 1A6 recombinant antibody"}}, "biological_target": "T1, SARS-COV-2病毒N蛋白 (nucleocapsid protein) (SARS-COV-2)", "T1 construct": "Recombinant N protein; also called 核衣壳蛋白", "experiment": "ELISA, N protein coated at 2 μg/ml on the microplate"}
{"binder": "B1", "values": [{"measurement": "EC50", "value": 1.34, "unit": "ng/mL"}]}
